# Data published in the supplement of paper PMC8728848.
# Some of the results follow.
# B1: Gal 3 (Canis lupus) (protein)
# chain: MADSFSLNDALSGSGNPNPQGWPGPWGNQPAGAGGYPGASYPGAYPGQAPPGGYPGQAPPGGYPGQAPPGGYPGQAPPGGYPGQAPPGGYPGQAPPGTYPGPTAPAYPGPTAPGTQPGQPSGPGAYPPPGQPSAPGAYPAAGPFGIPAGPLTVPYDLPLPGGVKPRMLITILGTVRPSANRLALDFKRGNDVAFHFNPRFNEDNKRVIVCNTKLDNIWGKEERQAAFPFESGKPFKIQVLVESDHFKVAVNDAHLLQYNHRMKNLPEISKLGISGDIDLTSASYAMI
# Columns and labels:
# Assay in all cases: glycan array binding signal (z-score within array); higher = stronger binding
# Settings in all cases: glycan notation: IUPAC condensed, linker removed
# [1] = biological target: GalNAc(b1-3)GalNAc
# Method in brief: (§1)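 Glycan array binding is given as a within-array Z-score, which can be read as non-binding when negative. The arrays, 3228 of them, came from the Consortium for Functional Glycomics database and were retained only where the protein sequence was available. Z-scores were averaged across arrays of the same protein sequence at different concentrations or buffers and across linkers.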
# [2] = biological target: GalNAc(b1-4)GlcNAc
# Method in brief: as §1
# [3] = biological target: GalNAc(b1-4)GlcNAc(b1-2)Man(a1-3)[GalNAc(b1-4)GlcNAc(b1-2)Man(a1-6)]Man(b1-4)GlcNAc(b1-4)GlcNAc
# Method in brief: as §1
# [4] = biological target: GalNAc(b1-6)GalNAc
# Method in brief: as §1
# [5] = biological target: Glc(a1-4)Glc
# Method in brief: as §1
# [6] = biological target: Glc(a1-6)Glc(a1-6)Glc
# Method in brief: as §1
# [7] = biological target: Glc(b1-4)Glc
# Method in brief: as §1
# [8] = biological target: Glc(b1-6)Glc
# Method in brief: as §1
# [9] = biological target: GlcA(b1-3)Gal
# Method in brief: as §1
# [10] = biological target: GlcA(b1-3)GlcNAc
# Method in brief: as §1
# [11] = biological target: GlcA(b1-6)Gal
# Method in brief: as §1
# [12] = biological target: GlcNAc(a1-3)Gal(b1-4)GlcNAc
# Method in brief: as §1
# [13] = biological target: GlcNAc(a1-4)Gal(b1-3)GlcNAc
# Method in brief: as §1
# [14] = biological target: GlcNAc(a1-4)Gal(b1-4)GalNAc
# Method in brief: as §1
# [15] = biological target: GlcNAc(a1-4)Gal(b1-4)GlcNAc
# Method in brief: as §1
# [16] = biological target: GlcNAc(a1-4)Gal(b1-4)GlcNAc(b1-3)Gal(b1-4)Glc
# Method in brief: as §1
# [17] = biological target: GlcNAc(a1-4)Gal(b1-4)GlcNAc(b1-3)Gal(b1-4)GlcNAc
# Method in brief: as §1
# [18] = biological target: GlcNAc(a1-4)Gal(b1-4)GlcNAc(b1-3)Gal(b1-4)GlcNAc(b1-3)Gal(b1-4)GlcNAc
# Method in brief: as §1
# [19] = biological target: GlcNAc(a1-4)Gal(b1-4)GlcNAc(b1-3)Gal(b1-4)[Fuc(a1-3)]GlcNAc(b1-3)Gal(b1-4)[Fuc(a1-3)]GlcNAc
# Method in brief: as §1
# [20] = biological target: GlcNAc(a1-6)Gal(b1-4)GlcNAc
# Method in brief: as §1
# [21] = biological target: GlcNAc(b1-2)Gal(b1-3)GalNAc
# Method in brief: as §1
# [22] = biological target: GlcNAc(b1-2)Man(a1-3)[GlcNAc(b1-2)Man(a1-6)]Man(b1-4)GlcNAc(b1-4)GlcNAc
# Method in brief: as §1
# [23] = biological target: GlcNAc(b1-2)Man(a1-3)[GlcNAc(b1-2)Man(a1-6)]Man(b1-4)GlcNAc(b1-4)[Fuc(a1-6)]GlcNAc
# Method in brief: as §1
# [24] = biological target: GlcNAc(b1-2)Man(a1-3)[GlcNAc(b1-4)][GlcNAc(b1-2)Man(a1-6)]Man(b1-4)GlcNAc(b1-4)GlcNAc
# Method in brief: as §1
# [25] = biological target: GlcNAc(b1-2)[GlcNAc(b1-4)]Man(a1-3)[GlcNAc(b1-2)Man(a1-6)]Man(b1-4)GlcNAc(b1-4)GlcNAc
# Method in brief: as §1
# [26] = biological target: GlcNAc(b1-2)[GlcNAc(b1-4)]Man(a1-3)[GlcNAc(b1-4)][GlcNAc(b1-2)Man(a1-6)]Man(b1-4)GlcNAc(b1-4)GlcNAc
# Method in brief: as §1
# [27] = biological target: GlcNAc(b1-2)[GlcNAc(b1-4)]Man(a1-3)[GlcNAc(b1-4)][GlcNAc(b1-2)[GlcNAc(b1-6)]Man(a1-6)]Man(b1-4)GlcNAc(b1-4)GlcNAc
# Method in brief: as §1
# [28] = biological target: GlcNAc(b1-2)[GlcNAc(b1-6)]Man(a1-6)[GlcNAc(b1-2)Man(a1-3)]Man(b1-4)GlcNAc(b1-4)GlcNAc
# Method in brief: as §1
# [29] = biological target: GlcNAc(b1-2)[GlcNAc(b1-6)]Man(a1-6)[GlcNAc(b1-2)Man(a1-3)][GlcNAc(b1-4)]Man(b1-4)GlcNAc(b1-4)GlcNAc
# Method in brief: as §1
# [30] = biological target: GlcNAc(b1-3)Gal
# Method in brief: as §1
# [31] = biological target: GlcNAc(b1-3)Gal(b1-3)GalNAc
# Method in brief: as §1
# [32] = biological target: GlcNAc(b1-3)Gal(b1-4)Glc
# Method in brief: as §1
# [33] = biological target: GlcNAc(b1-3)Gal(b1-4)GlcNAc
# Method in brief: as §1
# [34] = biological target: GlcNAc(b1-3)Gal(b1-4)GlcNAc(b1-3)Gal(b1-4)GlcNAc
# Method in brief: as §1
# [35] = biological target: GlcNAc(b1-3)GalNAc
# Method in brief: as §1
# [36] = biological target: GlcNAc(b1-3)Man
# Method in brief: as §1
# [37] = biological target: GlcNAc(b1-3)[GlcNAc(b1-4)][GlcNAc(b1-6)]GlcNAc
# Method in brief: as §1
binder,measurement,setting,value
B1,glycan array binding signal (z-score),[1],-0.259
same,glycan array binding signal (z-score),[2],-0.237
same,glycan array binding signal (z-score),[3],-0.152
same,glycan array binding signal (z-score),[4],-0.146
same,glycan array binding signal (z-score),[5],-0.262
same,glycan array binding signal (z-score),[6],-0.269
same,glycan array binding signal (z-score),[7],-0.261
same,glycan array binding signal (z-score),[8],-0.255
same,glycan array binding signal (z-score),[9],-0.26
same,glycan array binding signal (z-score),[10],-0.187
same,glycan array binding signal (z-score),[11],-0.272
same,glycan array binding signal (z-score),[12],-0.205
same,glycan array binding signal (z-score),[13],-0.262
same,glycan array binding signal (z-score),[14],-0.243
same,glycan array binding signal (z-score),[15],-0.265
same,glycan array binding signal (z-score),[16],-0.039
same,glycan array binding signal (z-score),[17],1.71
same,glycan array binding signal (z-score),[18],3.48
same,glycan array binding signal (z-score),[19],-0.164
same,glycan array binding signal (z-score),[20],-0.252
same,glycan array binding signal (z-score),[21],-0.259
same,glycan array binding signal (z-score),[22],-0.271
same,glycan array binding signal (z-score),[23],-0.251
same,glycan array binding signal (z-score),[24],-0.144
same,glycan array binding signal (z-score),[25],-0.259
same,glycan array binding signal (z-score),[26],-0.16
same,glycan array binding signal (z-score),[27],-0.15
same,glycan array binding signal (z-score),[28],-0.144
same,glycan array binding signal (z-score),[29],-0.148
same,glycan array binding signal (z-score),[30],-0.264
same,glycan array binding signal (z-score),[31],-0.259
same,glycan array binding signal (z-score),[32],-0.242
same,glycan array binding signal (z-score),[33],0.005
same,glycan array binding signal (z-score),[34],1.06
same,glycan array binding signal (z-score),[35],-0.263
same,glycan array binding signal (z-score),[36],-0.262
same,glycan array binding signal (z-score),[37],-0.266
